# Results from PubChem BioAssay AID662 (National Center for Advancing Translational Sciences (NCATS), 2007).
# Among all 71,000 compounds or so, about 1,800 (2.5%) were called active. The inconclusive results got no clear call from the source; some entries with a clear call stand among them for comparison. Calls come from the whole dose curve; as a rule, active = well fitted activation curve with a large enough effect in the signal ratio, with a control signal flat (not every such curve was filed as active); inconclusive = small, poorly fitted or top-dose-only effect, or effect the other way, or a change in a side signal; inactive = flat fitted curve, though single readings scatter; the % refers to the signal ratio. Where the call is inconclusive, the potency comes from a doubtful curve fit.
# Assay: Cell signaling CRE-BLA (Fsk stim); for activity change, negative = inhibition: % of control where 0% means no effect
# Settings: CHO CRE-bla reporter (cAMP response element driving beta-lactamase), forskolin EC10, beta-lactamase ratio
# How it was run: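 Beta-lactamase reporter under a cAMP responsive element in CHO cells; compounds tested in titration series against EC10 NKH 477, 3 h at 37 °C. Read-out: CCF4 FRET ratio 460nm/530nm (excitation 405nm) giving %Activity, fitted to AC50.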
# [1] = activity change, negative = inhibition: at 38.2 µM (top of the series) unless noted
# Potency is the fitted concentration of half-maximal effect; tags give direction and shape of the fitted curve.
structure (smiles),measurement,setting,value
CCCn1c(CNc2ccc(Br)cc2)nc2ccccc21,"activity change, negative = inhibition",[1],inactive
COc1ccc(Oc2ncc3nc(-c4ccc(F)cc4)c(=O)n(C4CC4)c3n2)cc1,"activity change, negative = inhibition",[1],inactive
CC(=O)Nc1c(C#N)c(C(C)(C)C)cn1C,"activity change, negative = inhibition",[1],inactive
O=c1c2ccccc2nc2n1CCN2,"activity change, negative = inhibition",[1],inactive
O=C(CSc1nc(-c2ccco2)cc(C(F)(F)F)n1)Nc1ccc2c(c1)OCO2,Potency,[1],"inconclusive: 6.31 µM [rising, partial curve]"
Cc1ncc(CN=Cc2ccc(Cl)cc2)c(N)n1,"activity change, negative = inhibition",[1],inactive: -3.26% [at 7.6 µM]
CC(C)CSc1nc2c(c(=O)[nH]c(=O)n2C)n1CC(O)COc1cccc2ccccc12 (centres undefined),Potency,[1],"inconclusive: 12.6 µM [rising, single point]"
CN(CCC(=O)O)S(=O)(=O)c1ccccc1,"activity change, negative = inhibition",[1],inactive: 9.07% [at 7.6 µM]
CC1=C(C#N)C(Nc2cccc(C)n2)(C(F)(F)F)C(=O)N1 (centres undefined),"activity change, negative = inhibition",[1],inconclusive: -16.6%
CCCC(=O)N(Cc1cc2cc(C)ccc2[nH]c1=O)c1ccccc1OC,"activity change, negative = inhibition",[1],inconclusive: -1.14% [at 7.6 µM]
O=C(Nc1sccc1C(=O)NCc1ccco1)c1cccnc1,Potency,[1],"inconclusive: 10 µM [rising, partial curve]"
Cc1ccc(S(=O)(=O)N2CCC(C(=O)O)(c3ccccc3)CC2)cc1,"activity change, negative = inhibition",[1],inactive: -2.83% [at 7.6 µM]
CCc1ccccc1NC(=O)c1ccc(F)c(S(=O)(=O)N2CCC(C(N)=O)CC2)c1,"activity change, negative = inhibition",[1],inconclusive: 13%
COc1ccc(C(=O)N(Cc2ccco2)Cc2cc3cc(C)ccc3[nH]c2=O)cc1OC,"activity change, negative = inhibition",[1],inactive
COc1ccc(CC2S/C(=C(\C#N)C(=O)NCc3ccco3)N(c3ccc(C)cc3)C2=O)cc1 (centres undefined),Potency,[1],"inconclusive: 25.1 µM [rising, single point]"
O=C(Nc1cc(C(=O)N2CCOCC2)ccc1N1CCCC1)c1cccs1,"activity change, negative = inhibition",[1],inconclusive: -6.43%
O=C(c1cnccn1)N1CCC2(CCCN(c3cccc(-c4ccccc4)c3)C2)CC1,"activity change, negative = inhibition",[1],inconclusive: 18.1%
CCCc1cc(=O)[nH]c(Nc2ccc(N3CCCCC3)cc2)n1,"activity change, negative = inhibition",[1],inactive
O=C(CSc1nc2sc3c(c2c(=O)n1Cc1ccco1)CCC3)N1CCc2ccccc21,"activity change, negative = inhibition",[1],inactive
Cc1ccc(-c2nn3c(-c4ccco4)nnc3c3ccccc23)cc1S(=O)(=O)N1CCOCC1,"activity change, negative = inhibition",[1],inconclusive: 6.43%
COc1ccc(-n2c(=O)c(-c3cccs3)nc3cnc(N4CCNCC4)nc32)cc1,Potency,[1],"inconclusive: 1.58 µM [rising, full curve]"
C/C(=C\c1ccc(Cl)cc1)C(C)(C)C(=O)O,"activity change, negative = inhibition",[1],inactive: 13.2% [at 7.6 µM]
O=C(Cn1nc(-c2ccccc2F)ccc1=O)NCc1ccc2c(c1)OCO2,"activity change, negative = inhibition",[1],inactive
Cc1ccc2nnc(Cl)n2n1,"activity change, negative = inhibition",[1],inconclusive: 1.09%
COc1cccc(NS(=O)(=O)c2c(C)cc(C)cc2C)c1,"activity change, negative = inhibition",[1],inconclusive: -1.88% [at 7.6 µM]
CCOC(=O)N1CCN(C(=O)CCNS(=O)(=O)c2cc(Br)cnc2N)CC1,"activity change, negative = inhibition",[1],inactive
COC(=O)[C@@]1(Cc2ccccc2)[C@H]2c3cc(C(=O)N4CCCC4)n(Cc4ccc(C)o4)c3C[C@H]2CN1C(=O)c1ccccc1,"activity change, negative = inhibition",[1],inconclusive: 18.2%
O=C(O)c1cc(O)c(O)c(O)c1,"activity change, negative = inhibition",[1],inactive
Nc1ccc(N=Nc2ccccc2)c(N)n1,"activity change, negative = inhibition",at 17.1 µM (top of the series),inconclusive: -16.8%
same,"activity change, negative = inhibition",at 38.2 µM (top of the series),inconclusive: -15.5%
CCN(CC)CCCC(C)n1c(-c2ccccc2)nc2c(NCCOC)nc(C)nc21 (centres undefined),"activity change, negative = inhibition",[1],inactive
COc1ccc2[nH]cc(CCNc3ncnc4ccc(-c5cccc(C#N)c5)cc34)c2c1,Potency,[1],active: 2.51 µM
CCCC(=O)Nc1ccc2nc(SCC(=O)Nc3nccs3)sc2c1,"activity change, negative = inhibition",[1],inactive
Cc1ccc(OCCCC(=O)Nc2ccc3c(c2)OCO3)cc1,"activity change, negative = inhibition",[1],inconclusive: -5.83% [at 7.6 µM]
CC(Oc1ccc(-c2ccccc2)cc1)C(=O)N1CCOCC1 (centres undefined),Potency,[1],"inconclusive: 15.8 µM [rising, single point]"
CCCn1c2c(c(O)c(C(=O)NC)c1=O)CCCC2,Potency,[1],"inconclusive: 10 µM [rising, partial curve]"
O=C(Nc1nc(-c2ccccc2)ns1)c1cccs1,"activity change, negative = inhibition",[1],inactive
Cc1ccsc1CNn1cnnc1SCc1ccccc1F,"activity change, negative = inhibition",[1],inconclusive: 11%
CN1CCCN(C(=O)c2cc(=O)[nH]c3ccccc23)c2nc3ccccc3nc21,"activity change, negative = inhibition",[1],inactive
Cc1ccc(Cl)cc1N1CCN(C(=O)C2CCCN(S(=O)(=O)c3cnc[nH]3)C2)CC1 (centres undefined),"activity change, negative = inhibition",[1],inactive
COCCNC(=O)CNS(=O)(=O)c1ccc2nc(C)sc2c1,"activity change, negative = inhibition",[1],inactive
COCCn1c(C)cc(C(=O)COc2nc3ccccc3nc2C)c1C,"activity change, negative = inhibition",[1],inconclusive: -6.37%
O=C(Nc1ccc2c(c1)OCO2)c1cnn2c(C(F)(F)F)cc(-c3ccco3)nc12,Potency,[1],active: 5.01 µM
CCCCCN(C(=O)NC(=O)Nn1cnnc1)S(C)(=O)=O,"activity change, negative = inhibition",[1],inconclusive: -2.78%
CCCc1nnc(NC(=O)c2ccncc2)s1,Potency,[1],"inconclusive: 3.98 µM [rising, single point]"
CC1=C(C(=O)Nc2ccc(Cl)cc2)C(c2cccs2)n2nnnc2N1 (centres undefined),Potency,[1],"inconclusive: 10 µM [falling, single point]"
Cc1ccc(CN2CC(C(=O)Nc3ccc(S(=O)(=O)Nc4cc(C)nc(C)n4)cc3)CC2=O)cc1 (centres undefined),"activity change, negative = inhibition",[1],inactive
CCc1c(C)c2cc(Cl)c(O)c(CN(CC)CC)c2oc1=O,Potency,[1],active: 10 µM
O=C(CSc1nnc(-c2ccccc2)o1)Nc1ccccc1F,"activity change, negative = inhibition",[1],inactive
Cc1cc(C)nc(SCc2nnc(SCC(=O)Nc3ncc(C)s3)n2Cc2ccco2)n1,Potency,[1],"inconclusive: 10 µM [rising, partial curve]"
COc1ccc2cc(C(c3nnnn3CC3CCCO3)N3CCOCC3)c(=O)[nH]c2c1 (centres undefined),"activity change, negative = inhibition",[1],inactive
CSc1ccccc1NS(=O)(=O)c1ccccc1,Potency,[1],"inconclusive: 6.31 µM [rising, partial curve]"
COc1ccc(CNc2ccnc(-c3ccccc3C(F)(F)F)n2)c(OC)c1,"activity change, negative = inhibition",[1],inactive
COCCCNC(=O)CSC1=Nc2ccccc2C2=NC(Cc3c[nH]c4ccccc34)C(=O)N12 (centres undefined),"activity change, negative = inhibition",[1],inconclusive: -24.8%
COC(=O)c1ccc(C=O)cc1,"activity change, negative = inhibition",[1],inconclusive: -11.8%
CCOC(=O)C1CCN(c2nc(-c3ccccc3)nc3c2oc2ccccc23)CC1,"activity change, negative = inhibition",[1],inconclusive: 13.9%
COc1cc(S(=O)(=O)NCc2ccccc2)ccc1F,Potency,[1],"inconclusive: 10 µM [falling, single point]"
Cc1ccc(OCC(=O)O)c(-n2nc3ccccc3n2)c1,"activity change, negative = inhibition",[1],inactive
Cc1cc2c(c(=O)n1CCN(C)C)C(c1ccncc1)C(C#N)=C(N)O2 (centres undefined),"activity change, negative = inhibition",[1],inconclusive: 22.5%
COc1ccccc1N1CCN(CC(=O)Nc2ccc(C)c(F)c2)CC1,"activity change, negative = inhibition",[1],inconclusive: -10.9%
COc1ccc2nc(N3CCCCC3)c(C#N)cc2c1,Potency,[1],"inconclusive: 10 µM [rising, single point]"
O=C(NCCO)c1c(O)c2cccc3c2n(c1=O)CC3,"activity change, negative = inhibition",[1],inconclusive: 20.2%
CCCCCCNc1cc2n(c(=O)n1)CCc1cc(OC)c(OC)cc1-2,Potency,[1],active: 2 µM
CC1(C)CC(=O)c2cc(C(=O)NCc3ccco3)c(=O)n(-c3ccc(Cl)cc3)c2C1,"activity change, negative = inhibition",[1],inactive
C[C@@H](C1=C(CCN(C)C)Cc2ccccc21)c1ccccn1,"activity change, negative = inhibition",[1],inactive
COC(=O)c1ccc(CSc2nnc3c(Cl)cc(Cl)cn23)o1,"activity change, negative = inhibition",[1],inactive
CCOc1ccc(C(C)=O)cc1COc1ccc(-n2cnnn2)cc1,"activity change, negative = inhibition",[1],inconclusive: 27.3%
O=C(NCc1cccnc1)NC1(C(F)(F)F)Oc2ccccc2O1,Potency,[1],"inconclusive: 0.1 µM [falling, full curve]"
CN(C)Cc1ccccc1-c1nccc(NC2CC2)n1,"activity change, negative = inhibition",[1],inactive
COC(=O)c1c(NC(=O)c2nc3ccccc3s2)sc2c1CCN(C(C)=O)C2,Potency,[1],active: 3.16 µM
Cc1ccc(-c2nnn(CC(=O)N(Cc3cccs3)C(C(=O)NC(C)(C)C)c3ccco3)n2)o1 (centres undefined),"activity change, negative = inhibition",[1],inconclusive: 9.85%
Cc1nc2nc(-c3ccco3)[nH]n2c(=O)c1Cc1ccccc1,"activity change, negative = inhibition",[1],inconclusive: -13.6%
COc1ccc(CCNC(=O)c2ccccc2NC(=O)c2ccco2)cc1OC,Potency,[1],"inconclusive: 12.6 µM [rising, partial curve]"
O=S(=O)(O)c1ccc(NN(c2c(O)ccc3ccccc23)S(=O)(=O)O)cc1,"activity change, negative = inhibition",[1],inactive: -1.45% [at 7.6 µM]
COc1cc(OC)c(-c2nn3c(-c4ccco4)nnc3s2)cc1OC,Potency,[1],active: 3.16 µM
Clc1ccc([C@H](Cn2ccnc2)OCc2c(Cl)cccc2Cl)c(Cl)c1,Potency,[1],"inconclusive: 12.6 µM [rising, single point]"
COC(=O)c1cc(OC)c(OC)cc1NC(=O)CSc1nnnn1Cc1ccccc1,Potency,[1],"inconclusive: 15.8 µM [rising, single point]"
CCCn1c(SCC(=O)c2cc(OC)ccc2OC)nnc1-c1ccco1,"activity change, negative = inhibition",[1],inconclusive: 26%
Cc1cc(N2CCN(S(=O)(=O)c3ccc(Cl)cc3)CC2)c2ccccc2n1,"activity change, negative = inhibition",[1],inconclusive: -20.6%
c1ccc(Cn2c(SCc3nc4ccccc4s3)nnc2-c2ccco2)cc1,Potency,[1],"inconclusive: 3.16 µM [rising, partial curve]"
CCOC(=O)CNC(=O)CSc1ncnc2c1cnn2Cc1ccccc1,"activity change, negative = inhibition",[1],inconclusive: -27.4%
O=C(CSc1ncnc2c1oc1ccccc12)OCc1ccccc1,Potency,[1],"inconclusive: 25.1 µM [rising, single point]"
CC(C)[C@@H](CC(=O)N[C@@H]1CCNC[C@H]1C(=O)N[C@H](CC(=O)N[C@@H](CCC(=O)O)CC(=O)O)Cc1c[nH]c2ccccc12)NC(=O)C[C@H](Cc1c[nH]c2ccccc12)NC(=O)[C@@H]1CNCC[C@H]1N,"activity change, negative = inhibition",[1],inactive
O=C(Nc1ccc2c(c1)OCO2)N1CCN(C(=O)C2CCCO2)CC1 (centres undefined),"activity change, negative = inhibition",[1],inconclusive: 10%
